The values below come from paper PMC12136788.

This is one part of the list.

First the molecules themselves.
B1: ENSG00000136451:be:win_2451|3pUTR|ENSG00000136451|bound_else_gene|NA|bound_elsewhere_windowed (ssRNA)
RNA: GGGAGUUCUACAGUCCGACGAUCUUUAAAUUGGAAGACGCUGGAGGCACUGGGAUGUGAUAUGCCCCUCUCUCUCCCAAUCAGAGCCUGUUGAUAUUACAACAGGGACAGAUGUGUUAGUUGCUCACUAGAGUUUAUGUCUUACAACAGAGGAUUGAGCAUCA
B2: chr5:173956200:173956301:+|3pUTR|ENSG00000113742|unk|total|mutant (ssRNA)
RNA: GGGAGUUCUACAGUCCGACGAUCCCCCUUCCUCAACCUCUUCACGCUGGCAUGUCCUUUUGCCGCAGUCUGUAACUUAACUACCGUAUAAUGAAAAGAAUGACCUAUAAUACCGGUGUUUUGCCGAUUCUUGUGUCACUGCAACAACAGAGGAUUGAGCAUCA
B3: chr1:93346344:93346492:+|5pUTR|ENSG00000117505|unk|FALSE|unique (ssRNA)
RNA: GGGAGUUCUACAGUCCGACGAUCGCCGCUCAAAUUUCCGGACCACCGCGCUUUCCCCUCCUCAGCCUGGGCUGUGCUCUCUCUAGAAUCCUCGGGCCCCCACUUUCUUCCCAAACUCAUCCUAAAUCUCUCACACACGCGAGUCAACAGAGGAUUGAGCAUCA
B4: chr11:101890673:101891278:-|three_prime_utr|ENSG00000187151|control|control|control (ssRNA)
RNA: GGGAGUUCUACAGUCCGACGAUCGUAAUGCAAGUUCUACAAUGAUAAUAUAUUAAAGAUUUUUAAAAGUUUAUCUUUUCACUUAGUGUUUCAAACAUAUUAGGCAAAAUUUAACUGUAGAUGGCAUUUAGAUGUUAUGAGUUUCAACAGAGGAUUGAGCAUCA
B5: chr7:114979563:114979664:+|CDS|ENSG00000135272|unk|total|mutant (ssRNA)
RNA: GGGAGUUCUACAGUCCGACGAUCCCAACCUCAGCGCUUGCCUCAGCUUCAGACUUCAGCCCAGGUGCCAAGUGGUGAGGAAACCGGCAAGAUAAAGAACGGCCACACAGGUCUGAGCAAUGGAAAUGGAAUUCACCACGGGGCCAACAGAGGAUUGAGCAUCA
B6: chr1:17067390:17067767:-|3pUTR|ENSG00000117115|msi1|total|mutant (ssRNA)
RNA: GGGAGUUCUACAGUCCGACGAUCCCCAACAUGCAAAGCCCACAUUUAAAGGCCAGCCUCUGCCCCUUCAGUGAUGCGCUCUUCCGAAAUGCCAGUCCACUAUAUUCAGAAAUCCGCAGGGCACAAAACUUCCAGCAAGUCACUCAACAGAGGAUUGAGCAUCA
B7: chr1:93152962:93153063:-|3pUTR|ENSG00000117500|msi1|total|mutant (ssRNA)
RNA: GGGAGUUCUACAGUCCGACGAUCGCUGGAAUUCUUGAUGAGCAAUAAUGAUAACCAGAGAGUGAUUUCAUUUACACUCACCGCCGUAUAAAAAGAGAUACAUUUCCCUCUCCGGCCCCUGGGAGAAGAGCAGCUCCGAUUUCCCAACAGAGGAUUGAGCAUCA
B8: ENSG00000124766:be:win_2851|3pUTR|ENSG00000124766|bound_else_gene|NA|bound_elsewhere_windowed (ssRNA)
RNA: GGGAGUUCUACAGUCCGACGAUCUAAUCAGAUGCCAUUUUAUAUGUGGACGUAUUUAUACUGGCCAAACAUAUUUUUUCUUUUGUCCCUUUUUUUCUUUCCUUUCUUUUUACUUCCUUUAUUUCUUUAUUCCUUCCUUUUCCUCAACAGAGGAUUGAGCAUCA
B9: chr13:108210031:108210147:-|CDS|ENSG00000174405|unk|FALSE|unique (ssRNA)
RNA: GGGAGUUCUACAGUCCGACGAUCAUGGUUAAUAAUAAAAAGCUAGGGCAUGAGACUCUGAGAAAGAGGUAUGAGAUUCUUAGUAGUAUUUUUACACCAAUUCCAGGUAGAAUAGAAAUAGUGCAGAAAACACAAGCUCAUACUCAACAGAGGAUUGAGCAUCA
B10: chr12:129073877:129075059:-|CDS|ENSG00000151952|control|control|control (ssRNA)
RNA: GGGAGUUCUACAGUCCGACGAUCACCUUCACCGCCGUCUCCUCAGACGACGAGUACCCCACCAGGAACUCCAUCGUGAUGAGUAGCGAGGAUGACAUUAAGUGGGUCUGCCAGGAUCUGGACCCUGGGGACUGCAAAGAGCUGCAACAGAGGAUUGAGCAUCA
B11: chr14:101901747:101901860:+|CDS|ENSG00000078304|unk|FALSE|unique (ssRNA)
RNA: GGGAGUUCUACAGUCCGACGAUCCUGGCCAAAGACUCACAGUCCAAAAGAAGUAAUGUUCUUAAACGAAUUAGAAGAGAUUUUAGAUGUCAUUGAACCAUCAGAAUUUGUGAAGAUCAUGGAACCCCUCUUCCGGCAGUUGGCCAACAGAGGAUUGAGCAUCA
B12: chr4:48498090:48498191:-|3pUTR|ENSG00000075539|msi1|FALSE|bound_elsewhere (ssRNA)
RNA: GGGAGUUCUACAGUCCGACGAUCAGGAAGCCUGAAGACUGACUACCAAAACAUGCAAUAUACUUAUUCACUGUCUAAGUCUGUAGUAUAACAUGAACUGGAGUCUCUAUCCUUUUCUAAAAUCGCAUUUUGUAAGAAAAGAAACAACAGAGGAUUGAGCAUCA
B13: chr1:100520103:100520216:+|3pUTR|ENSG00000079335|unk|FALSE|unique (ssRNA)
RNA: GGGAGUUCUACAGUCCGACGAUCUUACACAUGUGCCUACAUAGACACACCAAGAAGUGGAUGUAUAUAAUAUAGAAAGUAUAUAGCAAAGUAAUUUUACUCUGAUAAUAAAAAUUGUUUGACAUGUAUUUUGUUAUGAAUAGUCAACAGAGGAUUGAGCAUCA
B14: chr5:40972473:40972581:+|CDS|ENSG00000112936|unk|FALSE|unique (ssRNA)
RNA: GGGAGUUCUACAGUCCGACGAUCAAAACCUUUCUACACAGUUGGUGAGAAGGUGACUGUUUCCUGUUCAGGUGGCAUGUCCUUAGAAGGUCCUUCAGCAUUUCUCUGUGGCUCCAGCCUUAAGUGGAGUCCUGAGAUGAAGAACAACAGAGGAUUGAGCAUCA

For this assay, the target named is MSI1 full-length (mouse, UniProt Q61474 1-362). In words: nsRBNS (natural sequence RNA bind-n-seq); RBNS binding buffer (assumed for nsRBNS): 25 mM Tris pH 7.5, 150 mM KCl, 3 mM MgCl2, 0.01% Triton X-100, 500 ug/ml BSA, 20 U/ml SUPERase-In, 4 C; UNK is unkempt and MSI1 is Musashi-1; names of the RNAs are library labels; protein concentration not given here; high values mean tight binding.
UniProt Q61474, sequence (Q61474 whole entry): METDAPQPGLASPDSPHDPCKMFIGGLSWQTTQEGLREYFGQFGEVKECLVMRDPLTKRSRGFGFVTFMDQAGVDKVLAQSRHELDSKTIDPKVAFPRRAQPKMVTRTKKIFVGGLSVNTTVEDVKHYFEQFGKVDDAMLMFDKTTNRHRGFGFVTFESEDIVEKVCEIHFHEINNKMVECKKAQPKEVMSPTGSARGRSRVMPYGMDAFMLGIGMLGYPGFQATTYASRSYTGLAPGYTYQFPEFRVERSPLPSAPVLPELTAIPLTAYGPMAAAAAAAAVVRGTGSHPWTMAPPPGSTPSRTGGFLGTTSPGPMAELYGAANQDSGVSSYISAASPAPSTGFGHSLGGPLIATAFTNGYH
B1 yielded a binding signal of 1.47 enrichment R.
As to B2, the binding signal came to 0.862 enrichment R.
The figure for B3 is 1.22 enrichment R; for B4 it is 3.72 enrichment R; for B5 it is 0.447 enrichment R.
On to B6, for which the binding signal was determined as 0.72 enrichment R.
The figure for B7 is 0.498 enrichment R; for B8 it is 4.25 enrichment R; for B9 it is 4.73 enrichment R.
As for B10, the binding signal is 0.538 enrichment R.
With B11, the binding signal amounted to 1.68 enrichment R.
The molecule B12 yielded a binding signal of 0.279 enrichment R.
The molecule B13 gave a binding signal of 3.97 enrichment R.
Molecule B14 came in with a binding signal of 0.339 enrichment R.
